Test results reported in the supplement of paper PMC11417369.
± gives the standard deviation of the averaged measurements. The list shows a part of the results.

Test system: PfAP2-LT AP2 domain (GST-tagged)
Experiment: gcPBM binding intensity (ln(normalized median fluorescence intensity)); higher = stronger DNA binding
Outline: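 GST-tagged P. falciparum DNA-binding domains, expressed in E. coli (about 25 μg on average), were applied for 1 h to an Agilent 4 × 180k array of primer-extended double-stranded 36-bp intergenic genomic probes plus negative controls. The binding buffer was 1× PBS with 1% milk, 0.2 mg/ml BSA, 0.5% salmon testes DNA and 0.03% Triton X-100. Bound protein was detected with Alexa488 anti-GST antibody and scanned at 488 nm. Binding intensity is the highest Masliner-normalised natural-log median intensity across replicate spots of either probe orientation.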

Sequence | gcPBM binding intensity (ln)
AAAAAAAAAAAAAAAACATGCAATAAAGTGTGCGTA [TGCATGCA_site982] | 8.91 ± 0.38
TTTTGGTGGGTTACAAGTACTCAAAATGGATTGTTA [XGTACX_site1951] | 8.56 ± 0.38
TCACATACATTACTTACACACCATATTGATATATAC [CACACA_site6353] | 9.13 ± 0.36
TGTATATATTATATTTGTACATATAAAACTATATGT [XGTACX_site4782] | 8.66 ± 0.34
TATCTCATAGTATACACACACACACGCGCACATATA [CACACA_site6917] | 10.1 ± 0.3
TTATTTTTTAAAAGTAGTACAAATTTTTATAGAAAA [XGTACX_site7407] | 7.93 ± 0.47
ATTCCTTGGTTGTATAGTACTTTGGTTAAACATAAA [XGTACX_site6967] | 8.66 ± 0.45
CAATATTTGTTATGGGTGCAAACCGCATATATATAA [GTGCAC_site9543] | 8.79 ± 0.52
ATTAAATCCGCACGCACACACACATATTAATAAAAA [CACACA_site3992] | 9.71 ± 0.33
TAAAAAAGAAAATATATACACACCAAAAAAAAAAAA [CACACA_site3146] | 8.91 ± 0.43
AAACAAAAAAATTGAAATAAAATGAAGTAAATGAAC [TGCATGCA_negctrl_site129] | 8.9 ± 0.66
AATATTAAAGAATAATGTACAAAATAAAAGCAAAGA [XGTACX_site3550] | 9.1 ± 0.61
ACATGTCTTAAAAGACGTACATATAAAAGAACCCTA [XGTACX_site8940] | 8.86 ± 0.47
TATTAATTTCACCTTTCACATATGGAAAAAAAAAAA [CACACA_negctrl_site1243] | 8.21 ± 0.29
AATGTGCACACGCGTACACACAAAAAAAGAAAAAAA [CACACA_site7031] | 9.44 ± 0.47
TATTATTTGAGTAGTTGTACTCATTAATATATAAAA [XGTACX_site3468] | 8.23 ± 0.38
ATTAACATTTTCGTATGTACATATATAATATATGTT [XGTACX_site7184] | 8.96 ± 0.38
AATAAAAATAAAAATTGTACACTTTTTTAATATTTA [XGTACX_site892] | 8.34 ± 0.42
ATGTTTATTTATTTATGTACTTATATATTTATATAT [XGTACX_site7924] | 9.04 ± 0.4

Sequence | gcPBM binding intensity (ln)
TTTCCAAATACAACTACACACAAACAAAAATTATAT [CACACA_site4641] | 9.15 ± 0.39
CAAAATATTTATATCACACATATAAATAAAAATAAA [CACACA_site6028] | 8.64 ± 0.52
AAAAAAAAAAAACACACACACAAAATAAACAAACAA [CACACA_site2721] | 9.62 ± 0.36
TAATATAATAATAATTGTACTTTTCATAGTGTAATT [XGTACX_site8152] | 8.45 ± 0.57
ATTATAATTATCAAGGTGCGTGTATTATAATAAATA [GTGCAC_site9917] | 8.69 ± 0.42
GGATATTATATAAAGTGTACAAGACAAATATATACA [XGTACX_site8173] | 9.07 ± 0.54
AATAAATTAAATAAAAATGTTTAACATAAAATATGA [GTGCAC_negctrl_site373] | 8.52 ± 0.45
ATATATCAAGGGAGTGAATGTTATGCATATGAATAT [TGCATGCA_negctrl_site573] | 8.88 ± 0.49
AAATTAACAAACTGTAGTACTAACAATATATACAAA [XGTACX_site1772] | 8.92 ± 0.52
AAACAAAACAACTAAGTGCATAAAAATAAAATAAAT | 9.1 ± 0.52
ATTTTATTTTTTTGAAGTACGAATTCCGAGAAGAAA [XGTACX_site43] | 8.22 ± 0.35
TATTCAAAAATATAAACAATGAAACAGTATAATATG [CACACA_negctrl_site1482] | 8.73 ± 0.5
TATAGTTCTTCTATTTGTACATATATTATTATTTAA [XGTACX_site895] | 8.74 ± 0.42
AATTTTCCATAGATTGTGCACAAATTTTTATTTTGT | 8.87 ± 0.44
TTATAATCAATGAATACACACATATATTTAATTAAT [CACACA_site3613] | 8.84 ± 0.35
AAGAAAAAGACTTCATGAAAAAGAATTTTTTTAATT [TGCATGCA_negctrl_site473] | 8.38 ± 0.49
TAATATTATTTTTCAGTGCAATATAACCTTAGAATT [GTGCAC_site9417] | 8.34 ± 0.4
ATATATTTTTTTTTTATTTTATTATTATAATTTATC [XGTACX_negctrl_site16] | 8.64 ± 0.58
AACTGTAAAAAATATAAACACACATAGAAATATATA [CACACA_site8002] | 9.08 ± 0.49

Sequence | gcPBM binding intensity (ln)
TATGTGTGAAAAAAATGTACATATATATAAATTATA [XGTACX_site7202] | 8.95 ± 0.44
ATATATATATATAATAGTACATATATTTTGAAAGAT [XGTACX_site5800] | 8.89 ± 0.37
TATTCTTACAAAAGTAGTACAATCATTCATATTTTT [XGTACX_site631] | 8.62 ± 0.45
AAAAATGAAAAATGAAAAATGAAAAATGAAAAATAA [CACACA_negctrl_site695] | 8.73 ± 0.49
TATATATATATAATTGTGCACATAATTTTAAACCAA | 8.78 ± 0.3
TAGTTTCAAGTAGGACGTACATATAAAAGGATTTTT [XGTACX_site7136] | 8.77 ± 0.41
GTTCTGTAAATACGTGCACACACAAATCACAAATGT [CACACA_site7999] | 9.42 ± 0.24
AATTAAAAAAGTAATTAACACACAATAATGTAATGC [CACACA_site9388] | 8.98 ± 0.49
AAAGAAATGAAATATACACACATACATATATACATA [CACACA_site9335] | 9.24 ± 0.32
GATATATTTTATATATGTACATACAATGGTAAATAT [XGTACX_site2759] | 8.84 ± 0.38
TTTTTTTTCTTTTTTTGTACATAATAATATATAAAT [XGTACX_site6778] | 8.37 ± 0.46
TACATATATATTTGTTCACACACACCCAAAAAAAAA [CACACA_site8788] | 9.28 ± 0.46
TCTATGTAGTTTTTATGTACTAAATAAATAAATAAA [XGTACX_site2599] | 8.19 ± 0.36
TAGAAGCAGAAACACACACACATACATACACATACA [CACACA_site1467] | 9.87 ± 0.35
GCATTCATTTTTAATACACACAAAAAAAAAATAAAA [CACACA_site2408] | 8.76 ± 0.36
TTTTCAATATATATTTGTACTTTATTTTATGATATT [GTGCAC_negctrl_site732] | 8.85 ± 0.52
TAAATGTCCTTATTTGCACACACACCGATAAGAAAT [CACACA_site5723] | 9.38 ± 0.18
ACTATTAACAGTGTAGTGCAAAAAGGTTAATTATTA | 9.08 ± 0.64
CTAACAACCAAACGCACACACACAAAAAAAAAAATA [CACACA_site400] | 9.95 ± 0.61
